Test results as given in the supplement of paper PMC3334620.
Whole data set: some 33,000 sequences, median “E-score (-0.5 to 0.5)” near -0.054, cut for the highest 2% near 0.35. The list shows a part of the results.

Molecular target: T1, Stb5 (UniProt P38699)
T1 sequence: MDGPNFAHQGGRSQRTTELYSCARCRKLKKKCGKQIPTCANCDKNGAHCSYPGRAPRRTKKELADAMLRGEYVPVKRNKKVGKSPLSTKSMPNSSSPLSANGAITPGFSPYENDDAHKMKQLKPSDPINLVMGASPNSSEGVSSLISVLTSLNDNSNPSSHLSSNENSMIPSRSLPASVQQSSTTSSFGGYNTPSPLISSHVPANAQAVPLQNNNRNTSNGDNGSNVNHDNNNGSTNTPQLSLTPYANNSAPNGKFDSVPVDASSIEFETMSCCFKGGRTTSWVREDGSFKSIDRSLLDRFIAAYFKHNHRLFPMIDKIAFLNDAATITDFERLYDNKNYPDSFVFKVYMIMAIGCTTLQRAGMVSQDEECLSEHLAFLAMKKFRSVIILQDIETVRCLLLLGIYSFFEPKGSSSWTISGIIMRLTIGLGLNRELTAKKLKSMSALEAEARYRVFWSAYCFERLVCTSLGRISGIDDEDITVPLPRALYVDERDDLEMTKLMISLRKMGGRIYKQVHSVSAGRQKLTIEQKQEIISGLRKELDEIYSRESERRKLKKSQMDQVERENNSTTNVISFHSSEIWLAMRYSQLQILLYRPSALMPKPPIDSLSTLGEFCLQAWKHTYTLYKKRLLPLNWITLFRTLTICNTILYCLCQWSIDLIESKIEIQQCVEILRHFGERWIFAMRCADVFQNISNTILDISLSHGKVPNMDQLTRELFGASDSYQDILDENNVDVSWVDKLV
Assay: PBM E-score (8-mer binding enrichment) (E-score (-0.5 to 0.5)); higher = stronger / more preferred TF binding; most listed sequences are background and not binding sites
Details: protein concentration: 200 nM; construct: GST-full length
Outline: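 Yeast transcription factors, full-length or as DNA-binding domains, were expressed with a GST tag using PURExpress in vitro transcription/translation. At about 100-200 nM they were applied to universal all-10-mer Agilent arrays, double-stranded by primer extension on fresh or once-stripped slides. Fluorescent anti-GST detected bound protein, and masliner normalised the scans. E-scores for ungapped eight-base words, pooled with reverse complements, came from the Universal PBM Analysis Suite.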

Sequence | PBM E-score
CGCGATTA | 0.105
AATATCGC | 0.0838
GCGTGTAC | 0.0732
CCGTTGTA | 0.156
CCACGCGC | 0.00935
GAGTTTCA | -0.131
GATTTCGC | 0.0818
AGTACGTC | -0.125
ATAGATCG | -0.047
CACGCAGC | 0.0109
AATACTTG | -0.0989
CTCTAAAA | 0.0124
CAAGTTAG | -0.0228
GCAGCTAC | 0.0204
TATATCAA | 0.0919
CCCATGCG | -0.113
AGGTCAGC | -0.149
CGCCTAAA | 0.0151
AAGATTTA | 0.0658
AACAACCT | -0.214
AGGGTATC | -0.0284
AACACGTC | -0.16

Sequence | PBM E-score
GCATCTCC | 0.0871
GGTAGAAA | 0.119
CGCCAACC | 0.163
ACACTCTC | -0.0845
AGCGAAAC | -0.0251
CCGCCACA | 0.241
CTTTTTCC | 0.115
AGATATAT | 0.123
AGAAGCCT | -0.0816
CGGCCCGC | 0.188
CGGTAGAG | 0.0365
AGGCTGGC | -0.236
AGGCCTTG | -0.183
AAACAACG | 0.0695
GAGGTCGA | -0.241
GTGGATAA | -0.0153
AAGATGGG | -0.0408
CGTTCTAA | 0.128
TCACCCAA | -0.115
GCCGTCGA | 0.201
ATTGCCGC | 0.351
ATGGAGGG | -0.235

Sequence | PBM E-score
GGCTCCCA | -0.0473
CAACCACC | 0.152
AGTCCATG | -0.0765
ACCTGAAC | -0.124
GCTGATCC | -0.0374
AGAATAAC | 0.0561
AAAATATC | 0.0946
CGGTACAA | 0.323
CGGGCGAC | 0.126
AGTCGTGA | -0.216
CTATGTGC | -0.0835
ACTAGAGA | 0.0299
CCGGTCTC | 0.217
AGCATGCG | -0.0356
AGTACTCA | -0.258
GGGGGTTA | 0.212
CGCCGTCC | 0.265
CCGGGATA | 0.202
GTACCGGA | 0.261
ACAAGGAA | 0.104
CTACTATA | 0.0217
GCGCGCAA | 0.0868

Sequence | PBM E-score
ACAATCCC | 0.212
AAGTTGGT | -0.133
CAAGTGTA | -0.155
ACCTTCCC | -0.15
CTAGCACC | 0.336
AAGTTCAG | -0.373
AAACGCAG | -0.0173
AGCACTTG | -0.279
GACTGGTA | 0.0599
AGTTAAGA | -0.123
CGCTGACC | 0.0577
GGCGACCC | 0.00378
GACCATAC | 0.00487
ACGTTGGC | -0.159
CGTATTGC | 0.119
AGCAGAAC | -0.119
CGGGAATA | 0.456
CTTGGACC | 0.0417
GGGGTTAC | 0.397
TATGGTGA | -0.0877
